According to the supplement of paper PMC4996465:

Columns and labels:
KB3-1 [1] = test: viability (% of DMSO control); higher = more viable cells
Method: (§1)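 Eleven-dose screen of the NCATS MIPE 3 library on cells without co-treatment; CellTiter-Glo after 48 h, as % of DMSO wells.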

Nalm-6 [2] = test: as above
Method: as §1

KB3-1 [3] = test: log AC50 of viability decrease (48 h) (log10 M); higher = less potent
Method: (§2)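 Eleven-dose screen of the NCATS MIPE 3 library on cells without co-treatment; CellTiter-Glo after 48 h. AC50 from the curve fit; only inhibitory curves of the better fit classes are listed.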

Nalm-6 [4] = test: as above
Method: as §2

Row | SMILES | viability (KB3-1 [1]; 0.00078 µM) [%] | viability (KB3-1 [1]; 0.00234 µM) [%] | viability (KB3-1 [1]; 0.00702 µM) [%] | viability (KB3-1 [1]; 0.0211 µM) [%] | viability (KB3-1 [1]; 0.0632 µM) [%] | viability (KB3-1 [1]; 0.19 µM) [%] | viability (KB3-1 [1]; 0.569 µM) [%] | viability (KB3-1 [1]; 1.71 µM) [%] | viability (KB3-1 [1]; 5.12 µM) [%] | viability (KB3-1 [1]; 15.4 µM) [%] | viability (KB3-1 [1]; 46.1 µM) [%] | viability (Nalm-6 [2]; run: 1, 0.00078 µM) [%] | viability (Nalm-6 [2]; run: 1, 0.00234 µM) [%] | viability (Nalm-6 [2]; run: 1, 0.00702 µM) [%] | viability (Nalm-6 [2]; run: 1, 0.0211 µM) [%] | viability (Nalm-6 [2]; run: 1, 0.0632 µM) [%] | viability (Nalm-6 [2]; run: 1, 0.19 µM) [%] | viability (Nalm-6 [2]; run: 1, 0.569 µM) [%] | viability (Nalm-6 [2]; run: 1, 1.71 µM) [%] | viability (Nalm-6 [2]; run: 1, 5.12 µM) [%] | viability (Nalm-6 [2]; run: 1, 15.4 µM) [%] | viability (Nalm-6 [2]; run: 1, 46.1 µM) [%] | viability (Nalm-6 [2]; run: 2, 0.00078 µM) [%] | viability (Nalm-6 [2]; run: 2, 0.00234 µM) [%] | viability (Nalm-6 [2]; run: 2, 0.00702 µM) [%] | viability (Nalm-6 [2]; run: 2, 0.0211 µM) [%] | viability (Nalm-6 [2]; run: 2, 0.0632 µM) [%] | viability (Nalm-6 [2]; run: 2, 0.19 µM) [%] | viability (Nalm-6 [2]; run: 2, 0.569 µM) [%] | viability (Nalm-6 [2]; run: 2, 1.71 µM) [%] | viability (Nalm-6 [2]; run: 2, 5.12 µM) [%] | viability (Nalm-6 [2]; run: 2, 15.4 µM) [%] | viability (Nalm-6 [2]; run: 2, 46.1 µM) [%] | log AC50 of viability decrease (KB3-1 [3]) | log AC50 of viability decrease (Nalm-6 [4]; run: 1) | log AC50 of viability decrease (Nalm-6 [4]; run: 2)
1 | CC(=O)Nc1sc2c(c1-c1nc3ccccc3s1)CNC2 | 101 | 100 | 104 | 105 | 104 | 109 | 105 | 106 | 105 | 83.7 | 6.01 | 105 | 100 | 111 | 113 | 103 | 111 | 117 | 102 | 97.1 | 58.5 | 4.59 | 108 | 104 | 105 | 101 | 99.7 | 104 | 109 | 105 | 98.5 | 64.1 | 4.64 | -4.63 | -4.78 | -4.78
2 | CC(NCc1ccc2c(c1)[nH]/c(=N\C(=O)c1ccc(-c3cn[nH]c3)s1)n2CC(C)(C)O)C(C)(C)C (stereo not drawn) | 97.3 | 97.6 | 100 | 80.5 | 36.2 | 12.8 | 11.3 | 8.23 | 6.31 | 5.38 | 2.33 | 89.1 | 93.2 | 80.3 | 52.4 | 42.3 | 17.4 | 5.24 | 5.47 | 3.23 | 1.41 | 1.08 | 92.3 | 99.4 | 84 | 58 | 55.3 | 7.09 | 4.06 | 7.16 | 2.26 | 1.21 | 0.685 | -7.38 | -7.43 | -7.33
3 | CCc1cc(-c2n[nH]c(C)c2-c2ccc3c(c2)OCCO3)c(O)cc1O | 97.2 | 99.9 | 104 | 105 | 103 | 102 | 96.3 | 90.1 | 57 | 57.5 | 46.3 | 102 | 113 | 102 | 111 | 106 | 105 | 96.5 | 85.7 | 73.4 | 49 | 12.1 | 105 | 96.3 | 99.5 | 106 | 104 | 108 | 100 | 89.2 | 74.1 | 58.2 | 12.3 | -5.58 | -4.83 | -4.78
4 | CCN(CC)CCCCNc1ncc2cc(-c3cc(OC)cc(OC)c3)c(NC(=O)NC(C)(C)C)nc2n1 | 105 | 106 | 110 | 107 | 109 | 107 | 107 | 112 | 111 | 83.2 | 31.2 | 114 | 125 | 128 | 117 | 122 | 124 | 116 | 110 | 101 | 79.8 | 2.94 | 103 | 106 | 106 | 107 | 107 | 115 | 110 | 107 | 97.1 | 77.2 | 3.17 | -4.68 | -4.73 | -4.68
5 | COc1cc2nc(N3CCCN(C)CC3)nc(NC3CCN(Cc4ccccc4)CC3)c2cc1OC | 99.1 | 103 | 100 | 99.7 | 101 | 108 | 103 | 101 | 84.7 | 38.4 | 2.61 | 108 | 101 | 101 | 114 | 103 | 95.5 | 92.5 | 65.3 | 11.9 | 6.56 | 1.34 | 101 | 96.2 | 102 | 99.8 | 96.6 | 89.7 | 84.3 | 62.2 | 6.97 | 6.14 | 1.16 | -4.88 | -5.63 | -5.68
6 | COc1ccc(OC)c(-c2nnc3ccc(-c4ccc(OC)c(O[C@@H]5CCOC5)c4)nn23)c1 | 102 | 107 | 106 | 108 | 112 | 107 | 102 | 78.4 | 70.8 | 39.9 | 19 | 108 | 117 | 107 | 118 | 108 | 105 | 106 | 84.6 | 81.7 | 28.1 | 12.3 | 99.4 | 99 | 101 | 104 | 96.3 | 101 | 98.6 | 69.3 | 68.4 | 21 | 6.69 | -5.08 | -4.98 | -5.08
7 | COC1=CC=CC2=C1C(=NC(=N2)C3=CC=CS3)NN4C(=O)\C=C(C)/C4=O | 102 | 99.4 | 100 | 96.6 | 97 | 91 | 73.3 | 54.9 | 54.9 | 34 | 8.68 | 84.4 | 81.5 | 66.5 | 54 | 35.8 | 20.5 | 7.05 | 3.54 | 3.33 | 2.71 | 1.97 | 100 | 80.8 | 70.2 | 48.1 | 29.4 | 12.1 | 3.7 | 2.42 | 2.27 | 1.29 | 1.41 | -5.23 | -7.48 | -7.78
8 | O=C(Nc1ccc(F)c(C(F)(F)F)c1)Nc1nnc(-c2ccncc2)s1 | 99.1 | 104 | 105 | 109 | 99.2 | 94.7 | 105 | 85.9 | 90.1 | 83 | 73.8 | 89.2 | 96.1 | 106 | 109 | 104 | 103 | 106 | 88.9 | 81.6 | 71.9 | 55.1 | 89.3 | 91.4 | 93.3 | 101 | 99.8 | 103 | 87.3 | 75.1 | 56.2 | 52.3 | 43.5 | -5.23 | -4.98 | -5.68
9 | OCCC#Cc1nc(-c2ccc(F)cc2)c(-c2ccncc2)n1CCCc1ccccc1 | 104 | 102 | 102 | 99.8 | 109 | 102 | 102 | 99.1 | 99.1 | 88.5 | 60.2 | 116 | 119 | 127 | 125 | 111 | 107 | 117 | 110 | 96.6 | 80.1 | 25.1 | 107 | 108 | 109 | 108 | 111 | 104 | 110 | 104 | 106 | 86.3 | 2.53 | -4.73 | -4.78 | -4.63
10 | CC(C)C1NC(=O)[C@@H](NC(=O)C2=C3\N=C\4/C(=C(/C)C(=O)\C(=C4C(=O)N[C@H]5[C@@H](C)OC(=O)C(C(C)C)N(C)C(=O)CN(C)C(=O)[C@@H]6CCCN6C(=O)C(NC5=O)C(C)C)N)OC3=C(C)C=C2)[C@@H](C)OC(=O)C(C(C)C)N(C)C(=O)CN(C)C(=O)[C@@H]7CCCN7C1=O (stereo partly drawn) [Actinomycin D] | 67.1 | 56.7 | 8.56 | 13.5 | 15.4 | 16.1 | 13 | 13.1 | 11.8 | 11.4 | 16.2 | 7.21 | 6.04 | 5.84 | 13.5 | 27.1 | 31.5 | 31.8 | 35.4 | 35.3 | 36.8 | 29.6 | 7.09 | 5.79 | 6.14 | 17 | 35 | 38.4 | 38.1 | 46.4 | 48.8 | 43.1 | 34 | -8.53 |  | 

Viability of KB3-1 and Nalm-6 cells after 48 h of drug alone (CellTiter-Glo), 11 doses over about 4.5 log units. % of DMSO wells, lower = more cell loss; AC50 from the fitted curve, lower = more potent. No active / inactive call. Nalm-6 was screened in two runs. AC50 is listed only for well-fitted inhibitory curves. KB3-1 is a HeLa-derived carcinoma line, Nalm-6 a B-cell precursor leukaemia line.
